Experimental data: PubChem BioAssay AID1347073 (National Center for Advancing Translational Sciences (NCATS), 2019)
About 200 (0.44%) of roughly 45,000 compounds were called active. Not shown: some 7% with an inconclusive outcome. Calls follow the shape of the dose curve; as a rule, active = well fitted activation curve with a large enough effect; inconclusive = small, poorly fitted or top-dose-only effect; inactive = no such curve, though single readings can be large or run the other way. The list shows a part of the results.

test: qHTS of TDP-43 Inhibitors: NCGC Sytravon Library Screen; details: yeast TDP-43 toxicity rescue, BacTiter-Glo growth, 24 h; series mostly up to 46.1 µM; growth rescue (activation): at the top concentration; also: 0% is about no effect; nearly all actives have a fitted effect of over 55% in size
How it was run: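 TDP-43-expressing yeast, pregrown in raffinose, seeded at OD600 0.02 in galactose medium with compound for 24 hr at 30 deg C. Growth read by BacTiter-Glo luminescence, so rescue of toxicity appears as activation.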

SMILES	growth rescue (activation)
CCOC(=O)C1(C)/C(=N/Nc2ccccc2OC)C(=O)C(=O)N1c1ccccc1 (centres undefined)	inactive: 23.5%
O=C(O)CCC(=O)N1N=C(c2ccc(Br)cc2)CC1c1ccc(Br)cc1 (centres undefined)	inactive: 11.5%
O=C(O)c1cc(NC(=O)c2ccc3c(c2)C(=O)N(Cc2ccccc2)C3=O)cc(C(=O)O)c1	inactive: 12.1%
S=c1sc(SCCOc2ccccc2)nn1-c1ccccc1	inactive: 25.8%
CCOC(=O)C1CCN(C(=O)c2ccccc2NC(=O)c2ccc(Cl)cc2)CC1	inactive: 1.45%
Cc1ccc(C(NC(=O)C2CCCCC2)c2c(O)ccc3ccccc23)cc1 (centres undefined)	inactive: 18.2%
O=C(O)c1ccc(N2CCOCC2)c(N2C(=O)C3C4C=CC(C4)C3C2=O)c1 (centres undefined)	inactive: 11.8%
CCOc1ncccc1C(=O)OCc1ccc(C(=O)OC)cc1	inactive: 25.8%
O=C1NC(NS(=O)(=O)c2ccc(Cl)cc2)(C(F)(F)F)C(=O)N1c1ccccc1 (centres undefined)	inactive: 7.02%
C#CC[N+](C)(C)CCCCCCCCCC	inactive: 7.37%
Cc1[nH]n(-c2ccc(Cl)c(Cl)c2)c(=O)c1CCO	inactive: 11.4%
CSc1nc(C)cc(Oc2ccc(=O)[nH]n2)n1	inactive: 7.86%
CCN(CC)S(=O)(=O)c1cccc(NC(=O)COc2ncnc3sccc23)c1	inactive: 1.28%
CCN1C(=O)/C(=C\C=C\c2ccccc2[N+](=O)[O-])SC1=S	inactive: 1.11%
O=C(Cc1ccc(Br)cc1)N/N=C/c1ccc(-c2cccc(C(=O)O)c2)o1	inactive: 4.76%
COc1cc(C(=O)NCC(=O)N/N=C/c2ccc(-c3ccc([N+](=O)[O-])cc3)o2)cc(OC)c1OC	inactive: 10%
O=S(=O)(c1ccccc1F)N1CCN(c2nc3ccccc3s2)CC1	inactive: 9.34%
CCN(CC)S(=O)(=O)c1ccc(N2CCN(c3ccccc3O)CC2)nc1	inactive: 21.7%
Cc1nnc(NC(=O)C(c2ccccc2)c2ccccc2)s1	inactive: 2.99%
CCCNC(=O)CSCc1nc(-c2ccc(SC)cc2)oc1C	inactive: 27.7%
O=C(COc1ccccc1Cl)N1CCc2ccccc21	inactive: 17.2%
O=C(O)c1ccc(-n2c(-c3cc(C4CC4)[nH]n3)n[nH]c2=S)cc1	inactive: 18.6%
Cc1cccc(C)c1NC(=S)N(Cc1ccco1)C1CCN(C(C)C)CC1	inactive: 14.7%
NC(=S)N/N=C/c1ccc([N+](=O)[O-])cc1	inactive: 16.7%
COc1ccc(S(=O)(=O)N2CCCC(C(=O)N3CCOCC3)C2)cc1OC (centres undefined)	inactive: 10.3%
CC(C)CN1CCNC(=O)C1CC(=O)N(C)CC1CCOCC1 (centres undefined)	inactive: -15.8%
CCc1ccccc1NC(=O)CNC(=O)c1ccc(OCc2cn3ccccc3n2)cc1	inactive: -12.5%

SMILES	growth rescue (activation)
COc1ccccc1CNC(=O)CN1C(=O)NC2(CCC(C)CC2)C1=O (centres undefined)	inactive: -0.951%
COc1ccc(C2CCCN2C(=S)Nc2cccc(Cl)c2C)cc1OC (centres undefined)	inactive: 3.7%
CN(C)c1ccc(C(C(=O)NCC2CCCO2)N(Cc2ccco2)C(=O)c2snc(C(N)=O)c2N)cc1 (centres undefined)	inactive: 8.33%
CN(C)c1cccc(C(=O)NCC2CCCO2)c1 (centres undefined)	inactive: -16.3%
CC(C(=O)Nc1ccc2c(c1)OCO2)N1CCN(C)CC1 (centres undefined)	inactive: 21.3%
CC(C)n1nc(C(=O)OCn2nnc3ccccc3c2=O)c2ccccc2c1=O	inactive: -7.41%
CCS(=O)(=O)n1nc(-c2cccnc2)nc1NCc1ccc(F)cc1	inactive: 1.59%
CCOCCn1c(=O)c2c(nc3n2CCN3c2ccc(C)cc2)n(C)c1=O	inactive: 24.7%
COc1cc(NC(=S)NN2CCN(C)CC2)cc(OC)c1OC	inactive: 0.533%
CCOc1ccc(NC(=O)CN2CCC(n3cnc4cc(F)ccc43)CC2)cc1	inactive: 1.4%
COCCNC(=O)C1(C)CCCN(C(=O)c2cccc(OC(F)(F)F)c2)C1 (centres undefined)	inactive: 8.7%
O=C(COC(=O)CNS(=O)(=O)c1ccccc1)Nc1ccc(Cl)cn1	inactive: 2.31%
COc1ncccc1-c1cc2nc(NCCNC(C)=O)n(C)c(=O)c2s1	inactive: 5.15%
CC(C)(C)NC(=O)C(=O)NNC(=O)c1ccc(C(C)(C)C)cc1	inactive: 4.86%
CC(=O)OCC1=C(C(=O)O)N2C(=O)C(NC(=O)c3ccc(F)cc3)C2SC1 (centres undefined)	inactive: 2.48%
FC(F)(F)c1ccccc1-n1c(-c2cnccn2)n[nH]c1=S	inactive: 6.59%
O=c1c2cn(Cc3ccc(F)cc3)c3ccc(F)cc3c-2nn1Cc1ccc(F)cc1	inactive: 0.691%
CC(C)C(=O)NCCc1c[nH]c2ccccc12	inactive: -10.7%
CN(C)S(=O)(=O)c1ccc(NC(=O)CN2CCCCCC2)cc1	inactive: -0.988%
CN(Cc1nccs1)C(=O)C1CCC(=O)N(CCc2cccc(F)c2)C1 (centres undefined)	inactive: -8.65%
CC(=O)c1ccc(NC(=S)NC(=O)Cc2ccc(Cl)cc2)cc1	inactive: 7.47%
COc1cccc(NC(=O)C2(C)CCN2Cc2ccc(SC)cc2)c1 (centres undefined)	inactive: 12.6%
COc1cccc(CNC(=O)CC2C(=O)NCCN2Cc2ccoc2)c1OC (centres undefined)	inactive: -3.19%
O=C(COC(=O)c1cc2ccccc2cc1O)NCc1ccccc1	inactive: 4.47%
CC1CCCCC1NC(=S)NC(=O)c1ccccc1Cl (centres undefined)	inactive: 16.1%
CCC(CC)C(=O)Nc1cc([N+](=O)[O-])ccc1F	inactive: 7.14%
O=C(NC1CCCc2ccccc21)c1ccccn1 (centres undefined)	inactive: 12.2%
